# Experimental data reported in the supplement of paper PMC8728848.
# This is one part of the list.
# Experiments:
# Assay in all cases: glycan array binding signal (z-score within array); higher = stronger binding
# Conditions in all cases: glycan notation: IUPAC condensed, linker removed
# [1] = biological target: Neu5Ac(a2-3)Gal(b1-4)GlcNAc(b1-6)GalNAc
# Method in brief: (§1)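 The binding signal is a Z-score computed within each array and averaged over linkers. Arrays of the same protein sequence at different concentrations or buffers were also averaged together. Data originate from 3228 arrays in the Consortium for Functional Glycomics database, kept only where the protein sequence was available.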
# [2] = biological target: Neu5Ac(a2-3)Gal(b1-4)GlcNAc(b1-6)[Gal(b1-3)]GalNAc
# Method in brief: as §1
# [3] = biological target: Neu5Ac(a2-3)Gal(b1-4)GlcNAc(b1-6)[Neu5Ac(a2-3)Gal(b1-3)]GalNAc
# Method in brief: as §1
# [4] = biological target: Neu5Ac(a2-3)Gal(b1-4)GlcNAc6S
# Method in brief: as §1
# [5] = biological target: Neu5Ac(a2-3)Gal(b1-4)[Fuc(a1-3)]GlcNAc
# Method in brief: as §1
# [6] = biological target: Neu5Ac(a2-3)Gal(b1-4)[Fuc(a1-3)]GlcNAc(b1-2)Man
# Method in brief: as §1
# [7] = biological target: Neu5Ac(a2-3)Gal(b1-4)[Fuc(a1-3)]GlcNAc(b1-3)Gal
# Method in brief: as §1
# [8] = biological target: Neu5Ac(a2-3)Gal(b1-4)[Fuc(a1-3)]GlcNAc(b1-3)Gal(b1-4)GlcNAc
# Method in brief: as §1
# [9] = biological target: Neu5Ac(a2-3)Gal(b1-4)[Fuc(a1-3)]GlcNAc(b1-3)Gal(b1-4)[Fuc(a1-3)]GlcNAc(b1-3)Gal(b1-4)[Fuc(a1-3)]GlcNAc
# Method in brief: as §1
# [10] = biological target: Neu5Ac(a2-3)Gal(b1-4)[Fuc(a1-3)]GlcNAc(b1-3)GalNAc
# Method in brief: as §1
# [11] = biological target: Neu5Ac(a2-3)Gal(b1-4)[Fuc(a1-3)]GlcNAc(b1-6)[Gal(b1-3)]GalNAc
# Method in brief: as §1
# [12] = biological target: Neu5Ac(a2-3)Gal(b1-4)[Fuc(a1-3)]GlcNAc(b1-6)[Neu5Ac(a2-3)Gal(b1-3)]GalNAc
# Method in brief: as §1
# [13] = biological target: Neu5Ac(a2-3)Gal(b1-4)[Fuc(a1-3)]GlcNAc6S
# Method in brief: as §1
# [14] = biological target: Neu5Ac(a2-3)Gal6S(b1-4)GlcNAc
# Method in brief: as §1
# [15] = biological target: Neu5Ac(a2-3)Gal6S(b1-4)[Fuc(a1-3)]GlcNAc
# Method in brief: as §1
# Neu5Ac(a2-3)GalNAc = biological target: Neu5Ac(a2-3)GalNAc
# Method in brief: as §1
# [16] = biological target: Neu5Ac(a2-3)GalNAc(b1-4)GlcNAc
# Method in brief: as §1
# [17] = biological target: Neu5Ac(a2-3)[GalNAc(b1-4)]Gal(b1-4)Glc
# Method in brief: as §1
# [18] = biological target: Neu5Ac(a2-3)[GalNAc(b1-4)]Gal(b1-4)GlcNAc
# Method in brief: as §1
# [19] = biological target: Neu5Ac(a2-3)[GalNAc(b1-4)]Gal(b1-4)GlcNAc(b1-3)GalNAc
# Method in brief: as §1
# [20] = biological target: Neu5Ac(a2-3)[Neu5Ac(a2-6)]GalNAc
# Method in brief: as §1
# Neu5Ac(a2-6)Gal = biological target: Neu5Ac(a2-6)Gal
# Method in brief: as §1
# [21] = biological target: Neu5Ac(a2-6)Gal(b1-3)GlcNAc(b1-3)[Gal(b1-4)GlcNAc(b1-6)]Gal(b1-4)Glc
# Method in brief: as §1
# Neu5Ac(a2-6)Gal(b1-4)Glc = biological target: Neu5Ac(a2-6)Gal(b1-4)Glc
# Method in brief: as §1
# [22] = biological target: Neu5Ac(a2-6)Gal(b1-4)GlcNAc
# Method in brief: as §1
# [23] = biological target: Neu5Ac(a2-6)Gal(b1-4)GlcNAc(b1-2)Man
# Method in brief: as §1
# [24] = biological target: Neu5Ac(a2-6)Gal(b1-4)GlcNAc(b1-2)Man(a1-3)Man(b1-4)GlcNAc(b1-4)GlcNAc
# Method in brief: as §1
# [25] = biological target: Neu5Ac(a2-6)Gal(b1-4)GlcNAc(b1-2)Man(a1-3)[Gal(b1-4)GlcNAc(b1-2)Man(a1-6)]Man(b1-4)GlcNAc(b1-4)GlcNAc
# Method in brief: as §1
# [26] = biological target: Neu5Ac(a2-6)Gal(b1-4)GlcNAc(b1-2)Man(a1-3)[GlcNAc(b1-2)Man(a1-6)]Man(b1-4)GlcNAc(b1-4)GlcNAc
# Method in brief: as §1
# [27] = biological target: Neu5Ac(a2-6)Gal(b1-4)GlcNAc(b1-2)Man(a1-3)[GlcNAc(b1-4)][Neu5Ac(a2-6)Gal(b1-4)GlcNAc(b1-2)Man(a1-6)]Man(b1-4)GlcNAc(b1-4)GlcNAc
# Method in brief: as §1
# [28] = biological target: Neu5Ac(a2-6)Gal(b1-4)GlcNAc(b1-2)Man(a1-3)[Man(a1-6)]Man(b1-4)GlcNAc(b1-4)GlcNAc
# Method in brief: as §1
# [29] = biological target: Neu5Ac(a2-6)Gal(b1-4)GlcNAc(b1-2)Man(a1-3)[Neu5Ac(a2-3)Gal(b1-4)GlcNAc(b1-2)Man(a1-6)]Man(b1-4)GlcNAc(b1-4)GlcNAc
# Method in brief: as §1
# [30] = biological target: Neu5Ac(a2-6)Gal(b1-4)GlcNAc(b1-2)Man(a1-3)[Neu5Ac(a2-6)Gal(b1-4)GlcNAc(b1-2)Man(a1-6)]Man(b1-4)GlcNAc(b1-4)GlcNAc
# Method in brief: as §1
# [31] = biological target: Neu5Ac(a2-6)Gal(b1-4)GlcNAc(b1-2)Man(a1-3)[Neu5Ac(a2-6)Gal(b1-4)GlcNAc(b1-2)Man(a1-6)]Man(b1-4)GlcNAc(b1-4)[Fuc(a1-6)]GlcNAc
# Method in brief: as §1
# [32] = biological target: Neu5Ac(a2-6)Gal(b1-4)GlcNAc(b1-2)Man(a1-6)Man(b1-4)GlcNAc(b1-4)GlcNAc
# Method in brief: as §1
# [33] = biological target: Neu5Ac(a2-6)Gal(b1-4)GlcNAc(b1-2)Man(a1-6)[Gal(b1-4)GlcNAc(b1-2)Man(a1-3)]Man(b1-4)GlcNAc(b1-4)GlcNAc
# Method in brief: as §1
# [34] = biological target: Neu5Ac(a2-6)Gal(b1-4)GlcNAc(b1-2)Man(a1-6)[GlcNAc(b1-2)Man(a1-3)]Man(b1-4)GlcNAc(b1-4)GlcNAc
# Method in brief: as §1
# [35] = biological target: Neu5Ac(a2-6)Gal(b1-4)GlcNAc(b1-2)Man(a1-6)[Man(a1-3)]Man(b1-4)GlcNAc(b1-4)GlcNAc
# Method in brief: as §1
# [36] = biological target: Neu5Ac(a2-6)Gal(b1-4)GlcNAc(b1-2)[Neu5Ac(a2-6)Gal(b1-4)GlcNAc(b1-4)]Man(a1-3)[GlcNAc(b1-4)][Neu5Ac(a2-6)Gal(b1-4)GlcNAc(b1-2)[Neu5Ac(a2-6)Gal(b1-4)GlcNAc(b1-6)]Man(a1-6)]Man(b1-4)GlcNAc(b1-4)GlcNAc
# Method in brief: as §1
# [37] = biological target: Neu5Ac(a2-6)Gal(b1-4)GlcNAc(b1-2)[Neu5Ac(a2-6)Gal(b1-4)GlcNAc(b1-4)]Man(a1-3)[GlcNAc(b1-4)][Neu5Ac(a2-6)Gal(b1-4)GlcNAc(b1-4)Man(a1-6)]Man(b1-4)GlcNAc(b1-4)GlcNAc
# Method in brief: as §1
# [38] = biological target: Neu5Ac(a2-6)Gal(b1-4)GlcNAc(b1-2)[Neu5Ac(a2-6)Gal(b1-4)GlcNAc(b1-6)]Man(a1-6)[Neu5Ac(a2-6)Gal(b1-4)GlcNAc(b1-2)Man(a1-3)][GlcNAc(b1-4)]Man(b1-4)GlcNAc(b1-4)GlcNAc
# Method in brief: as §1
# [39] = biological target: Neu5Ac(a2-6)Gal(b1-4)GlcNAc(b1-3)Gal(b1-3)GlcNAc
# Method in brief: as §1
# [40] = biological target: Neu5Ac(a2-6)Gal(b1-4)GlcNAc(b1-3)Gal(b1-4)GlcNAc
# Method in brief: as §1
# [41] = biological target: Neu5Ac(a2-6)Gal(b1-4)GlcNAc(b1-3)Gal(b1-4)GlcNAc(b1-2)Man(a1-3)[Neu5Ac(a2-6)Gal(b1-4)GlcNAc(b1-3)Gal(b1-4)GlcNAc(b1-2)Man(a1-6)]GalNAc
# Method in brief: as §1
# [42] = biological target: Neu5Ac(a2-6)Gal(b1-4)GlcNAc(b1-3)Gal(b1-4)GlcNAc(b1-3)Gal(b1-4)GlcNAc
# Method in brief: as §1
# [43] = biological target: Neu5Ac(a2-6)Gal(b1-4)GlcNAc(b1-3)Gal(b1-4)GlcNAc(b1-3)Gal(b1-4)GlcNAc(b1-2)Man(a1-3)[Neu5Ac(a2-6)Gal(b1-4)GlcNAc(b1-3)Gal(b1-4)GlcNAc(b1-3)Gal(b1-4)GlcNAc(b1-2)Man(a1-6)]GalNAc
# Method in brief: as §1
binder,measurement,setting,value
HPL (Tachypleus tridentatus) (protein) MEDDCTCVTDRSLEGKLMKHPSTPAVYQILDGCRRLVPNPPTYNNIYKNWECIQSNILEKLLCKCDSLSNGAELIKGSGDTVYLLSNGVKRPIADPETFNGFCFDWNKIKTYSDIVINSLSTGPIIIIKHHHHHH,glycan array binding signal (z-score),[1],0.147
same,glycan array binding signal (z-score),[2],0.429
same,glycan array binding signal (z-score),[3],-0.253
same,glycan array binding signal (z-score),[4],-0.213
same,glycan array binding signal (z-score),[5],-0.326
same,glycan array binding signal (z-score),[6],-0.18
same,glycan array binding signal (z-score),[7],-0.447
same,glycan array binding signal (z-score),[8],-0.314
same,glycan array binding signal (z-score),[9],0.082
same,glycan array binding signal (z-score),[10],0.177
same,glycan array binding signal (z-score),[11],0.043
same,glycan array binding signal (z-score),[12],0.806
same,glycan array binding signal (z-score),[13],-0.273
same,glycan array binding signal (z-score),[14],-0.421
same,glycan array binding signal (z-score),[15],-0.291
same,glycan array binding signal (z-score),Neu5Ac(a2-3)GalNAc,-0.219
same,glycan array binding signal (z-score),[16],-0.267
same,glycan array binding signal (z-score),[17],-0.391
same,glycan array binding signal (z-score),[18],-0.232
same,glycan array binding signal (z-score),[19],-0.001
same,glycan array binding signal (z-score),[20],-0.029
same,glycan array binding signal (z-score),Neu5Ac(a2-6)Gal,-0.478
same,glycan array binding signal (z-score),[21],-0.336
same,glycan array binding signal (z-score),Neu5Ac(a2-6)Gal(b1-4)Glc,-0.295
same,glycan array binding signal (z-score),[22],-0.277
same,glycan array binding signal (z-score),[23],0.59
same,glycan array binding signal (z-score),[24],0.129
same,glycan array binding signal (z-score),[25],-0.071
same,glycan array binding signal (z-score),[26],-0.18
same,glycan array binding signal (z-score),[27],-0.365
same,glycan array binding signal (z-score),[28],0.476
same,glycan array binding signal (z-score),[29],-0.108
same,glycan array binding signal (z-score),[30],-0.095
same,glycan array binding signal (z-score),[31],0.007
same,glycan array binding signal (z-score),[32],-0.191
same,glycan array binding signal (z-score),[33],-0.31
same,glycan array binding signal (z-score),[34],-0.077
same,glycan array binding signal (z-score),[35],0.027
same,glycan array binding signal (z-score),[36],-0.346
same,glycan array binding signal (z-score),[37],-0.34
same,glycan array binding signal (z-score),[38],-0.37
same,glycan array binding signal (z-score),[39],-0.175
same,glycan array binding signal (z-score),[40],-0.252
same,glycan array binding signal (z-score),[41],0.1
same,glycan array binding signal (z-score),[42],-0.069
same,glycan array binding signal (z-score),[43],0.508
